# Assay results: the supplement of paper PMC7826260
# The other results are listed elsewhere or left out. Each Rep nickase domain was tested in vitro on the same pool of single strands (3 µM enzyme, 1 h, 37 °C); shown is the middle of each 90-letter strand. The score is log2 (uncut reads / reads without enzyme); the lower, the more was cut; hits are not called. The scaling is to total reads; uncut strands gain when others are lost, and binding without cutting may add a little.
# Experiments:
# Test in all cases: uncleaved DNA left, log2 of reads against the no-enzyme library (log2 ratio); higher = less cleavage (more negative = more Rep cleavage of the k-mer); sequences stand for … in CTCGTCCG…ACCGGAGA
# [1] = tested on: T1, Rep nickase domain of Muscovy duck circovirus
# T1 sequence (residues 1-111, tag not shown): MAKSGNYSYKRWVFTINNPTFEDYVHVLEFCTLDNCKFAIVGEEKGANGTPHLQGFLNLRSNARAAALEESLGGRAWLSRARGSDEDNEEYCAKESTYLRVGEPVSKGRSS
# Procedure: (§1)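 A pool of 90-nt single-stranded DNAs with seven random bases just before the constant AC of the nick site (name = the seven bases) was cut by 3 µM recombinant His6-SUMO-tagged Rep nickase domain (300 nM DNA, 50 mM HEPES pH 8.0, 50 mM NaCl, 1 mM MnCl2, 1 h, 37 °C, three replicates). Uncut DNA was amplified and sequenced.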
# [2] = tested on: T2, Rep nickase domain of banana bunchy top virus
# T2 sequence (residues 1-94, tag not shown): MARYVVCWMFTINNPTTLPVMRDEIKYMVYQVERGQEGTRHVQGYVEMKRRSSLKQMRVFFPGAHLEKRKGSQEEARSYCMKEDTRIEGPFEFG
# Procedure: as §1
# [3] = tested on: T3, Rep nickase domain of cabbage leaf curl virus
# T3 sequence (residues 1-116, tag not shown): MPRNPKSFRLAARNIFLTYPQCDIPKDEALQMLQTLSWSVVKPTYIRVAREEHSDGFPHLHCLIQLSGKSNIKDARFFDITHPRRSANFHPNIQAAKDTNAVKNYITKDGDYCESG
# Procedure: as §1
# [4] = tested on: T4, Rep nickase domain of chickpea chlorotic dwarf virus
# T4 sequence (residues 1-124, tag not shown): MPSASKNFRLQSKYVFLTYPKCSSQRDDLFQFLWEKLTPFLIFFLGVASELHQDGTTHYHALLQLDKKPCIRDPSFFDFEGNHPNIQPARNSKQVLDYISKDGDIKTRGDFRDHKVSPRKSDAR
# Procedure: as §1
# [5] = tested on: T5, Rep nickase domain of faba bean necrotic yellows virus
# T5 sequence (residues 1-98, tag not shown): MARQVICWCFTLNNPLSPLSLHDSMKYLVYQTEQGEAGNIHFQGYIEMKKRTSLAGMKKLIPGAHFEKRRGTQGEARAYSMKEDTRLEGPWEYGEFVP
# Procedure: as §1
# [6] = tested on: T6, Rep nickase domain of maize striate mosaic virus
# T6 sequence (residues 1-117, tag not shown): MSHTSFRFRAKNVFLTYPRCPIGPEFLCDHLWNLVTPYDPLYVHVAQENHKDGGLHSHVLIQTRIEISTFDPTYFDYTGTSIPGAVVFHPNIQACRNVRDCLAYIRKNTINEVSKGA
# Procedure: as §1
# [7] = tested on: T7, Rep nickase domain of porcine circovirus 2
# T7 sequence (residues 2-116, tag not shown): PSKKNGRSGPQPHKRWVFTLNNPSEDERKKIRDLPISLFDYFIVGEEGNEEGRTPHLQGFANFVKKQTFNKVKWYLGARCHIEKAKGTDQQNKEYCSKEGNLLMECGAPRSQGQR
# Procedure: as §1
# [8] = tested on: T8, Rep nickase domain of tomato golden mosaic virus
# T8 sequence (residues 1-124, tag not shown): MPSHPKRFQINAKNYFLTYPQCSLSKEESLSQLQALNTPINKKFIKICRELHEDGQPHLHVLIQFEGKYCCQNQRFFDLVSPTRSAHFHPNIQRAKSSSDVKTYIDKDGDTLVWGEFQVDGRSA
# Procedure: as §1
# [9] = tested on: T9, Rep nickase domain of tomato yellow leaf curl virus
# T9 sequence (residues 1-136, tag not shown): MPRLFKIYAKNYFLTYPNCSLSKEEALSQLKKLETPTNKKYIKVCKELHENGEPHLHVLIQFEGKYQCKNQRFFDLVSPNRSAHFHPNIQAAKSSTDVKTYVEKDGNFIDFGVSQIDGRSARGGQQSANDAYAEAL
# Procedure: as §1
# [10] = tested on: T10, Rep nickase domain of wheat dwarf virus
# T10 sequence (residues 1-137, tag not shown): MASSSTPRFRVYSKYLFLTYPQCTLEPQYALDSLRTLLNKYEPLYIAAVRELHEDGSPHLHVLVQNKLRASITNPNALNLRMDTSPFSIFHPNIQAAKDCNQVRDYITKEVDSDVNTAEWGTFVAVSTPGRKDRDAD
# Procedure: as §1
Sequence,uncleaved DNA left (log2) [1],uncleaved DNA left (log2) [2],uncleaved DNA left (log2) [3],uncleaved DNA left (log2) [4],uncleaved DNA left (log2) [5],uncleaved DNA left (log2) [6],uncleaved DNA left (log2) [7],uncleaved DNA left (log2) [8],uncleaved DNA left (log2) [9],uncleaved DNA left (log2) [10]
ATCATCA,0.0284,0.0798,-0.0184,-0.942,-0.00243,-0.646,-0.0735,-0.03,0.107,0.192
ACCGTGG,-0.0322,0.0563,-0.00136,0.51,0.00588,-0.384,0.199,-0.0381,0.00897,0.0184
GTAGTGA,-0.0105,-0.0186,0.0481,0.515,-0.0769,0.495,0.05,-0.0481,-0.0544,-0.0724
GACTCGC,0.0247,0.0884,-0.0214,0.0456,0.135,-0.549,-0.084,-0.07,0.0173,0.0229
CTTTGGT,-0.685,-0.207,-0.268,-0.475,-0.104,-0.94,-1.19,-0.105,-0.0797,-0.157
CGGAGGC,0.0213,-0.0103,0.121,0.484,-0.0418,0.061,0.0379,-0.0347,-0.0512,0.0137
AAGTAAT,-0.75,-2.14,0.0463,0.673,-1.55,1.46,-3.84,0.105,-0.00272,0.0634
CAGGCTA,-0.0315,-0.0561,0.0306,-0.543,-0.00696,0.304,-0.147,0.00373,-0.133,-0.113
TAAGTGT,0.0936,-0.0539,-3.02,-2.11,-0.027,-0.131,-0.0577,-0.379,-0.101,-0.831
GTTACGG,0.0612,0.054,0.565,1.53,-0.0257,2.14,0.101,0.16,-0.0675,0.0589
TACGTCC,-0.0207,-0.0793,-0.124,-0.521,-0.0356,-0.619,-0.0171,-0.0998,0.0506,0.0287
TTTCCAC,0.0395,0.0241,0.143,-0.106,-0.0127,-0.107,-0.323,-0.0659,0.0753,0.0996
GCCATAA,0.136,0.19,-0.0464,0.35,-0.00967,-0.14,0.0589,0.0585,0.183,0.129
GACCTGC,-0.0796,-0.00748,-0.159,-0.0393,-0.103,-0.586,-0.0637,0.0028,0.0316,-0.144
GTCTTCC,-0.0355,0.0396,0.314,0.787,-0.0111,1.61,0.00189,-0.0728,-0.0131,0.0181
